# According to patent publication US11618753B2 (priority 2018, dated 2023):
# System: MLKL phosphorylation, HT29-L23 human colorectal adenocarcinoma cells
# Assay: cells
# Settings: read-out: pMLKL HCS Cell Assay (IC50, uM)
row,Structure (SMILES),IC50 [µM]
1,"Nc1ncnn2c(-c3ccc(Cl)c(C(=O)N[C@@H]4CN(C(=O)c5cc(F)ccc5F)C[C@@H]4F)c3)cc(C(F)(F)F)c12 [Example 957, 5-[4-amino-5-(trifluoromethyl)pyrrolo[2,1-f][1,2,4]triazin-7-yl]-2-chloro-N-[(3R,4S)-1-(2,5-difluorobenzoyl)-4-fluoropyrrolidin-3-yl]benzamide]",0.013
2,"Nc1ncnn2c(-c3ccc(Cl)c(C(=O)N[C@@H]4CN(C(=O)c5ccc(F)cn5)C[C@@H]4F)c3)cc(C(F)(F)F)c12 [Example 958, 5-[4-amino-5-(trifluoromethyl)pyrrolo[2,1-f][1,2,4]triazin-7-yl]-2-chloro-N-[(3R,4S)-4-fluoro-1-(5-fluoropyridine-2-carbonyl)pyrrolidin-3-yl]benzamide]",0.078
3,"Nc1ncnn2c(-c3ccc(Cl)c(C(=O)N[C@@H]4CN(C(=O)c5cnccc5Cl)C[C@@H]4F)c3)cc(C(F)(F)F)c12 [Example 959, 5-[4-amino-5-(trifluoromethyl)pyrrolo[2,1-f][1,2,4]triazin-7-yl]-2-chloro-N-[(3R,4S)-1-(4-chloropyridine-3-carbonyl)-4-fluoropyrrolidin-3-yl]benzamide]",0.026
4,"Cc1cc(C(=O)N2C[C@H](F)[C@H](NC(=O)c3cc(-c4cc(C(F)(F)F)c5c(N)ncnn45)ccc3Cl)C2)ccn1 [Example 960, 5-[4-amino-5-(trifluoromethyl)pyrrolo[2,1-f][1,2,4]triazin-7-yl]-2-chloro-N-[(3R,4S)-4-fluoro-1-(2-methylpyridine-4-carbonyl)pyrrolidin-3-yl]benzamide]",0.194
5,"Nc1ncnn2c(-c3ccc(Cl)c(C(=O)N[C@@H]4CN(C(=O)c5ccncc5F)C[C@@H]4F)c3)cc(C(F)(F)F)c12 [Example 961, 5-[4-amino-5-(trifluoromethyl)pyrrolo[2,1-f][1,2,4]triazin-7-yl]-2-chloro-N-[(3R,4S)-4-fluoro-1-(3-fluoropyridine-4-carbonyl)pyrrolidin-3-yl]benzamide]",0.025
6,"Nc1ncnn2c(-c3ccc(Cl)c(C(=O)N[C@@H]4CN(C(=O)c5cc(Cl)ccn5)C[C@@H]4F)c3)cc(C(F)(F)F)c12 [Example 962, 5-[4-amino-5-(trifluoromethyl)pyrrolo[2,1-f][1,2,4]triazin-7-yl]-2-chloro-N-[(3R,4S)-1-(4-chloropyridine-2-carbonyl)-4-fluoropyrrolidin-3-yl]benzamide]",0.13
7,"Nc1ncnn2c(-c3ccc(Cl)c(C(=O)N[C@@H]4CN(C(=O)c5ccccc5Cl)C[C@@H]4F)c3)cc(C(F)(F)F)c12 [Example 963, 5-[4-amino-5-(trifluoromethyl)pyrrolo[2,1-f][1,2,4]triazin-7-yl]-2-chloro-N-[(3R,4S)-1-(2-chlorobenzoyl)-4-fluoropyrrolidin-3-yl]benzamide]",0.034
8,"Nc1ncnn2c(-c3ccc(Cl)c(C(=O)N[C@@H]4CN(C(=O)c5c(F)cccc5F)C[C@@H]4F)c3)cc(C(F)(F)F)c12 [Example 964, 5-[4-amino-5-(trifluoromethyl)pyrrolo[2,1-f][1,2,4]triazin-7-yl]-2-chloro-N-[(3R,4S)-1-(2,6-difluorobenzoyl)-4-fluoropyrrolidin-3-yl]benzamide]",0.0082
9,"CCc1ccc(-c2cc(C(F)(F)F)c3c(N)ncnn23)cc1C(=O)N[C@@H]1CN(C(=O)C(C)(C)F)C[C@@H]1F [Example 965, 5-[4-amino-5-(trifluoromethyl)pyrrolo[2,1-f][1,2,4]triazin-7-yl]-2-ethyl-N-[(3R,4S)-4-fluoro-1-(2-fluoro-2-methylpropanoyl)pyrrolidin-3-yl]benzamide]",0.01
10,"CCc1ccc(-c2cc(C(F)(F)F)c3c(N)ncnn23)cc1C(=O)N[C@@H]1CN(C(=O)CC(C(F)(F)F)C(F)(F)F)C[C@@H]1F [Example 966, 5-[4-amino-5-(trifluoromethyl)pyrrolo[2,1-f][1,2,4]triazin-7-yl]-2-ethyl-N-[(3R,4S)-4-fluoro-1-[4,4,4-trifluoro-3-(trifluoromethyl)butanoyl]pyrrolidin-3-yl]benzamide]",0.0056
